Measured values as given in ChEMBL document CHEMBL1156829.
Over roughly 5,400 compounds, “IFI” has its median near 2; the highest 2% begin near 22. The list shows a part of the results.

Assay: NOVARTIS: Inhibition Frequency Index (IFI) - the number of HTS assays where a compound showed > 50% inhibition/induction, expressed as a percentage of the number of assays in which the compound was tested.
Assay type: functional

SMILES	IFI
CC[n+]1c(C=CC=C2N(C)c3ccccc3C2(C)C)sc2ccccc21	28.6%
COc1ccc(N2CCN(C(CNC(=O)CC(C)C)c3ccco3)CC2)cc1 (stereo not drawn)	0%
CCCCCSc1scc(-c2ccc(O)c(O)c2)[n+]1C	6.5%
COc1ccc(OC)c(-c2ccc(O)c(CNCCCN(C)C)c2)c1	2.56%
CC(C)CC(NC(=O)OC(C)(C)C)C(=O)NC(Cc1ccccc1)C(=O)OCc1ccccc1 (stereo not drawn)	0%
O=C(Nc1ccc(C2=NCCN2)cc1)Nc1cccc(C(=O)Nc2ccc(C3=NCCN3)cc2)c1	0.901%
CCOC(=O)c1sc(NC(=O)CSc2nnc(CNC(=O)COc3ccc(Cl)cc3)n2C)c(C(=O)OCC)c1C	1.19%
COc1cccc(OC)c1C(=O)Oc1cccc2ccc(C)nc12	1.39%
CCN(CC)CCCC(C)N(Cc1cccc(OCc2ccccc2)c1)C(=O)NCc1ccccc1 (stereo not drawn)	2%
CCC(C)OC(=O)C1=C(C)NC2=C(C(=O)CC(c3ccc(Cl)cc3)C2)C1c1ccc(Cl)cc1 (stereo not drawn)	7.69%
Fc1ccc(-c2c[n+](Cc3ccc(Cl)cc3)c3n2CCC3)cc1	9.76%
CC1CN(C(=O)C(Cc2c[nH]c3ccccc23)NC(=O)C(c2ccccc2)c2ccccc2)CCN1C(=O)NCc1ccccc1 (stereo not drawn)	0%
O[C@@H](c1cc(C(F)(F)F)nc2c(C(F)(F)F)cccc12)[C@H]1CCCCN1	1.82%
O=c1c2[nH]c3ccccc3c2ncn1Cc1ccc2c(c1)OCO2	3.08%
Cc1ccc(Sc2cc(C(=O)NCc3ccco3)c3ccccc3n2)cc1	1.19%
O=[N+]([O-])c1ccc(-c2csc(CO)n2)cc1	0.82%
Cc1ccnc(Nc2nc(-c3ccc(Cl)cc3)cs2)c1	6.45%
O=C(O)CC(c1ccc2c(c1)OCO2)N1CCS(=O)(=O)CC1 (stereo not drawn)	0%
CC(C)(C)c1ccc(C(=O)Nc2ccc(NC(=O)c3ccc(-c4cccc([N+](=O)[O-])c4)o3)cc2)cc1	0%
O=C(N/C(=C/C=C\c1ccccc1)C(=O)N1CCOCC1)c1ccc(Br)cc1	0%
CCOC(=O)CSC1=Nc2ccccc2C2=NC(Cc3ccccc3)C(=O)N12 (stereo not drawn)	3.61%
CCCCCCC(NC(=O)OCc1ccccc1)S(=O)(=O)c1ccc(C)cc1 (stereo not drawn)	2.6%
O=C(NCc1n[nH]c(=S)n1-c1ccc(Br)cc1)c1cccc2ccccc12	2.22%
Cc1ccc(-c2cc3nc4c(c(O)n3n2)CCCC4)cc1	7.14%
COc1cc(Br)c(/C=C2\Sc3ccccc3C2=O)cc1OC	0%

SMILES	IFI
CCC(C)OC(=O)C1=C(C)NC2=C(C(=O)CC(c3ccc(Cl)cc3)C2)C1c1ccccc1F (stereo not drawn)	2.41%
CCC(C)NC(=O)c1cc(NC(=O)c2cccc(Cl)c2)ccc1N1CCCCC1 (stereo not drawn)	1.89%
CCCCCn1c(SCc2ccc(C)cc2)nc2cc(C(=O)NCc3ccco3)ccc2c1=O	2.38%
COc1ccc(C2C(C(=O)O)c3ccccc3C(=O)N2c2ccc(C)cc2)cc1OC (stereo not drawn)	0%
Cc1cc(C)c2c(c1)-c1c(ssc1=S)C(C)(C)N2C(=O)COc1nc2ccccc2s1	0%
COc1ccc(-c2c[n+](Cc3ccc(Cl)c(Cl)c3)c3n2CCC3)cc1	2.44%
O=C(O)CSC(C(=O)Nc1ccc(Cl)cc1)c1ccccc1 (stereo not drawn)	0.8%
CCCC(=O)O[C@]1(C(=O)CCl)[C@@H](C)CC2C3CCC4=CC(=O)C=C[C@]4(C)[C@@]3(F)C(=O)C[C@@]21C (stereo partly drawn)	3.88%
Cc1ccccc1OCc1nnc(SCC(=O)Nc2ccc([N+](=O)[O-])cc2)n1C	5.94%
CCC(C(=O)NCc1ccc(OC)c(OC)c1)n1nc(C)c2c(C)n(-c3ccc(C)cc3)nc2c1=O (stereo not drawn)	0%
COc1ccc(-n2cnc3cc(NCc4nc5ccccc5n4C)ccc32)cc1	0%
COc1cc2c(-c3cc(Br)ccc3O)nc3c(c(Cc4ccccc4)nn3-c3ccccc3)c2cc1OC	0%
CCN1/C(=C/C(=C/c2sc3ccccc3[n+]2CC)NC)Sc2ccccc21	7.14%
CCCCS(=O)(=O)N(C)CCCNc1ccnc2cc(Cl)ccc12	3.7%
COc1cccc2c(C)nc(N=C(N)N)nc12	4.62%
CCC(C)(C)c1ccc(OCC(O)CNCc2ccccc2)c(C(C)(C)CC)c1 (stereo not drawn)	4.54%
COc1cccc(-c2ccc(O)c(CNC3CCCCCCC3)c2)n1	3.03%
CC(C)N(CCNc1ncnc2c1[nH]c1ccc(Cl)cc12)C(C)C	2.44%
CCCCCN(C(=O)c1cccc([N+](=O)[O-])c1)C(CC)c1nc2ccccc2c(=O)n1-c1ccccc1OC (stereo not drawn)	0.935%
COc1ccc(C2CC(c3c(-c4ccccc4)c4cc(Cl)ccc4[nH]c3=O)=NO2)cc1 (stereo not drawn)	0%
CN(/C=C/C1=[N+](C)c2ccc(Cl)cc2C1(C)C)c1ccccc1	0%
CCCc1cc2c(=O)c(-c3ccc4c(c3)OCO4)c(CC)oc2cc1OC(C)C	4.82%
C(#Cc1ccccc1)CN(Cc1ccccn1)Cc1ccccn1	0%
COc1cc(NC(=O)Cc2ccccc2OC)cc(OC)c1	0%
CCCCCn1c(C)[n+](CCCC)c2cc(Cl)c(Cl)cc21	7.14%

SMILES	IFI
CN(C)c1ccc(/C=C2/SC(=Nc3ccccc3Cl)NC2=O)cc1	12.6%
FC(F)(F)c1cccc(Nc2nc3nonc3nc2Nc2ccc(Cl)cc2)c1	22.7%
CCCCNCCN1CCN(c2ccc(OC)cc2)C[C@@H]1c1ccccc1	2.44%
COc1ccc(N(C)C(=O)CNC(=O)c2nn(-c3ccc(OC)cc3OC)c(=O)c3ccccc23)cc1	0%
CN(CCCNc1ccnc2cc(Cl)ccc12)C(=O)c1ccc(Br)cc1	1.85%
CCCCOc1ccc(C(=O)Oc2ccccc2-c2nc3cc(C)ccn3c2NC(C)(C)CC(C)(C)C)cc1	4.67%
Cc1c(Cl)cccc1-n1c(C(C)N(CCc2ccccc2)C(=O)COc2ccccc2)nc2ccccc2c1=O (stereo not drawn)	5.56%
Cc1ccc(-c2c[n+](CC(=O)c3ccccc3Cl)c3n2CCC3)cc1	4.76%
O=C(Nc1ccccc1)Nc1ccc(S(=O)(=O)Nc2ccc(Br)cc2)cc1	0%
O=[N+]([O-])c1ccc(Cl)c(-c2ccc(C=NNc3nc4ccccc4[nH]3)o2)c1	2.48%
CCCCN1Cc2ccc(C(N)=O)cc2N=C1C1CC1	2.44%
CCCN1/C(=C/c2sc3ccccc3[n+]2CC)C=Cc2ccccc21	23.1%
c1ccc(Nc2nc(-c3ccccn3)cs2)nc1	18.1%
CCC12C(=O)C(CC)(C(c3ccccc3)=C1c1ccccc1)C1C(=O)N(c3cccc(C(F)(F)F)c3)C(=O)C12 (stereo not drawn)	0%
COc1ccc(C2CC(c3cccs3)=NN2C(=O)CSc2nnc(CNC(=O)c3cccs3)n2-c2cccc(C)c2)cc1 (stereo not drawn)	3.57%
Fc1ccc(CN2CCc3nc(N4CCCCC4)sc3C2)cc1F	4.17%
Cc1cc(C)nc(SCc2cc(=O)c(OC(=O)c3cccc([N+](=O)[O-])c3C)co2)n1	0%
c1ccc(-c2csc(Nc3nc4cc5c(cc4s3)OCO5)n2)nc1	17.8%
CC(C)NCC(O)Cn1c2ccc(Cl)cc2c2cc(Cl)ccc21 (stereo not drawn)	4.25%
O=C(Nc1ccc(-c2nc3ccccc3[nH]2)cc1)c1ccc(-c2ccc(Cl)cc2)o1	11.9%
O=c1[nH]n(CC2COC(c3ccccc3)O2)c(=O)c2ccccc12 (stereo not drawn)	1.16%
O=C(CCn1c(=S)oc2ccccc21)N1CCN(c2ccccc2)CC1	4.41%
O=C(C1CC=CCC1)N1CCCC(c2ncncc2-c2ccncc2)C1 (stereo not drawn)	0%
O=C(C[n+]1cc(-c2ccc(F)cc2)n2c1CCC2)Nc1ccc(Cl)cc1	2.7%
CCc1ccc(-n2c(C(CC)N(CCc3ccc(OC)c(OC)c3)C(=O)C(CC)c3ccccc3)nc3ccccc3c2=O)cc1 (stereo not drawn)	2.88%

SMILES	IFI
C=CCOC(=O)C1=C(C)N=C2SCCC(=O)N2C1c1ccc(OC(=O)c2ccco2)cc1 (stereo not drawn)	0%
COc1ccc(C(=O)NC(c2ccccc2Cl)c2cc(Cl)c3cccnc3c2O)cc1 (stereo not drawn)	6.35%
CC(C)(C)CC(C)(C)Nc1c(-c2ccccc2OC(=O)c2ccc(Br)cc2)nc2ccccn12	2.83%
Cn1c(SCC(=O)Nc2cccc(F)c2)nc2c(c1=O)SCC2	0%
O=C(Nc1ccc(-c2nc3cc(NC(=O)c4cccs4)ccc3[nH]2)cc1)c1cccs1	8.33%
CCC(=O)N1c2ccccc2NC2=C(C(=O)CC(C)(C)C2)C1c1ccc2c(c1)OCO2 (stereo not drawn)	0%
COc1ccc(/C=C2/SC(Nc3ccc(F)cc3)=NC2=O)c(OC)c1	0%
CCOC(=O)c1nc2nc(C)cc(O)n2n1	3.49%
COc1cccc(Cn2c3cc(C)sc3c3cnn(C)c(=O)c32)c1	0%
CCOC(=O)C(=O)N1c2ccccc2-c2c(ssc2=S)C1(C)C	0%
CC1CCN(C(=O)C(C)N(c2ccccc2)S(C)(=O)=O)CC1 (stereo not drawn)	0%
O=C(Nc1cc(C(F)(F)F)ccc1N1CCOCC1)C(Cl)(Cl)Cl	0%
Cc1ccc(Nc2nc3c(N)nnc(N)c3nc2Nc2ccc(C)cc2)cc1	2.98%
CCc1cc(=O)n(C)c(SC(C)C(=O)Nc2ccc(F)cc2)n1 (stereo not drawn)	3.16%
CN(C)c1cc[n+](CC(=O)Nc2ccc(Cl)cc2)cc1	6.42%
CCCCOc1ccc(/C=C/C(=O)NCc2ccco2)cc1	0%
C[n+]1c(C=CNc2ccccc2)n(-c2ccccc2)c2ccc(Cl)cc21	12.5%
CC(=Cc1sc2ccc3occc3c2[n+]1CCO)C=C1Sc2ccc3ccoc3c2N1CCO.CCC(=Cc1sc2ccc3ccccc3c2[n+]1C)C=C1Sc2ccc3ccccc3c2N1C	11.1%
Cn1c(-c2ccc([N+](=O)[O-])cc2)[n+](C)c2ccccc21	1.3%
COc1ccc(/C=C/C(=O)NC(=O)c2ccccc2O)cc1	8.33%
CCCC(=O)Oc1ccccc1-c1nc2ccccn2c1NC(C)(C)CC(C)(C)C	3.67%
O=[N+]([O-])c1ccc(-n2ncc(-c3nc(-c4ccc(Cl)cc4)no3)c2C(F)(F)F)cc1	0.862%
CNC1=C(N(C(C)=O)c2ccc(Br)cc2)C(=O)c2ccccc2C1=O	14.3%
